Data published in the supplement of paper PMC9513381.
Recombinant human monoclonal antibodies (heavy:light variable regions). ELISA EC50 on the named antigen, from 10 µg/ml down; IC50 / IC90 against spike pseudovirus on 293T-ACE2 cells, 48 h; lower = stronger. Calls: IC50 above 1,000 ng/ml = non-neutralizing; EC50 above 1,000 ng/ml = non-binder. The source prints 1000 for neutralization that was not reached; it is given as >1000 ng/ml. Only binders of the Wuhan-Hu-1 domain have neutralization values.

B1: B1043 (protein)
chain 1: QVQLVESGGGVVQPGRSLRLSCAASGFIFSSYGMHWVRQAPGKGLEWVADISYHGSNKYYADSVKGRFNISRDNSKNTLFLQMNSLRPEDTALYFCAKDLGQGILHFVQWSLSRHGLDVWGQGTTVTVSS
chain 2: QSALTQPPSASGSPGQSVTISCTGTSSDVGGYNYVSWYQKYPGKAPKLIIYEVDKRPSGVPDRFSGSKSGNTASLTVSGLQAEDEADYYCSSSAVSVIFGGGTKLTVL
B2: B1047 (protein)
chain 1: QVQLVESGGGVVQPGRSLRLSCVASGFTFNNHAMHWVRQAPGKGLDWVAVISYDGSNKYYADSVKGRFTISRDNSKNTLYVQMNSLRAEDTAVYYCAREDYYDSSGSFDYWGQGTLVTVSS
chain 2: QSALTQPASVSGSPGQSITISCTGTSSDVGGYNYVSWYQQHPGKAPKLLTYDVSNRPSGVSNRFSGSKSGNTASLTISGLQAEDEADYYCSSYTNSATWVFGGGTKLTVL
B3: B1053 (protein)
chain 1: QVQLVQSGAEVKQPGASVKVSCKASGYTFTRYYMHWVRQAPGQGLEWMGWINPNSGGTNYAQKFQGSVTMTRDTPISTAYMELSRLKSDDTAVYYCARSLFYYDRRGYPTPEDHFDYWGQGTLVTVSS
chain 2: QSVLTQPPSVSGAPGQRVTISCTGSSSNIGANYDVHWYQHLPGTAPKLLIYGNTNRPSGVPDRFSGSKSGTSASLAITGLQAEDEGDYYCQSYDSSPSGPNWVFGGGTKVTVL
B4: B610 (protein)
chain 1: EVQLVESGGGLIQPGGSLRLSCAASGFPISSNYMNWVRQAPGKGLEWVSIIYSGGTTYYVDSVKGRFTISRDDSKNTLYLQMNSLRAEDTAVYYCARDLQNYGMDVWGQGTTVTVSS
chain 2: DIQLTQSPSFLSASVGDRVTITCRASQGISNYLVWYQQKPGKAPKLLIYAASTLQSGVPSRFSGSGSGTEFTLTISSLQPEDFATYYCQQVNSYPLFGPGTKVDI
B5: B612 (protein)
chain 1: EVQLVESGGGLIQPGGSLRLSCAASGVIVSSNYMTWVRQAPGKGLEWVSVIYSGGSTYYADSVKGRFTISRDNSKNTLYLQMNSLRAEDTAVYYCARDLNYYGMDVWGQGTTVTVSS
chain 2: DIQLTQSPSFLSASVGDRVTITCRASQGISSSLAWYQQKPGKAPKLLIYAASTLQSGVPSRFSGSGSGTEFTLTISSLQPEDFATYYCQQFNSYPHFGQGTKLEIK
B6: B1052 (protein)
chain 1: QVQLVQSGAEVKKPGASVKVSCKASGYIFTGYYMHWVRQAPGQGLEWMGWINPNSGATNYAQKFQGRVTMTRDTSISTVHMDLSRLRSEDTAVYYCARDQAFSMVSGSVDYWGQGTLVTVSP
chain 2: QSVLTQPASVSGSPGQSITISCTGASSDVGTYDLVSWYQHHPGKAPKLVIFEVTKRPSGVSNRFSGSKSGNTASLTISGLQAEDEADYYCCSYAGNSAYVFGTGTKVTA
B7: B601 (protein)
chain 1: QVQLVQSGAEVKKPGASVKVSCKTSGYTLIDYYVHWVRQAPGQGLEWMGRINPNSGGTNYAQKFQGRVTMTGGTSITTAYMELSGLRSDDTAVYYCATEHYDIVAGHSPGGKYFGMDVWGQGTTVTVSS
chain 2: QSALTQPASVSGSPGQSITISCTGSSSDVGSYNYVSWYQQHPGRAPKLIISEVTNRPSGVSNRFSGSKSGNTASLTISGLQAEDEADYYCSSYTSSSPLVLFGGGTKLT
B8: B602 (protein)
chain 1: QVQLVQSGAEVKKPGASVKVSCKTSGYTLIDYYVHWVRQAPGQGLEWMGRINPNSGGTNYAQKFQGRVTMTGGTSITTAYMELSGLRSDDTAVYYCATEHYDIVAGHSPGGKYFGMDVWGQGTTVTVSS
chain 2: QSALTQPASVSGSPGQSITISCTGSSSDVGSYNYVSWYQQHPGRAPKLIISEVTNRPSGVSNRFSGSKSGNTASLTISGLQAEDEADYYCSSYTSSSPLVLFGGGTKLTVL
B9: B605 (protein)
chain 1: QVQLQESGPRLVKPSQTLSLTCSVSGGSFSSGGYYWSWIRQHPGKGLEWIGYIYYTGSTYYNPSLKSRVSISVDTSKNELSLGLSSVTAADTAVYYCARGPYTTRAFDYWGQGTLVTVSS
chain 2: QSALTQPPSASGSPGQSVTISCTGTSSDVGGYNYVSWYQQHPGKAPKLIIYEVSKRPSGVPDRFSGSKSGNTASLTVSGLQAEDEADYYCSSYGGSNNEVFGGGTKLTVL
B10: B606 (protein)
chain 1: QVQLQESGPGLVKPSQTLSLTCSVSGGSVSSGGYYWSWIRQHPGKGLEWVGYIYYTGSTYYNPSLKSRGTISVDTSKNQFSLKLSSVTAADTAVYYCARGPYTTRAFDYWGQGTLVTVSS
chain 2: QSALTQPPSASGSPGQSVTISCTGTSSDVGDYNYVSWYQQHPGKAPKLMIYEVNKRPSGVPDRFSGSKSGNTASLTVSGLQAEDEADYYCSSYAGSNTEVFGGGTKLTVL
B11: B1044 (protein)
chain 1: QVQLVQSGAEVKKPGSSVKVSCKASGGTFSSYAISWVRQAPGQGLEWMGGIIPIFGTANYAQKFQGRVTITADESTSTAYMELSSLRSEDTAVYYCARALYYYDSSGRTRMEEYFDYWGQGTLVTVSS
chain 2: QSVLTQPPSVSGAPGQRVTISCTGSSSNIGAAYDVHWYQQLPGTAPKLLIYGNSNRPSGVPDRFSGSKSGTSASLAITGLQAEDEADYYCQSYDSSLSARYVFGTGTKVTVL
B12: B1051 (protein)
chain 1: EVQLVESGGGVVRPGGSLRLSCSASGFTFGEYGMSWFRQAPGKGPEWVSGITWNGGNPTYADSVKGRFMISRDNAKNSLYLQMNSLRAEDSASYHCARALCGDDCLASMYNWFDPWGQGTLVTVSS
chain 2: QSVLTQPPSVSGAPGQRVTISCTGSSSNIGAGYDVHWYQQFPGTAPKLLIYNNNNRPSGVPDRFSGSKSGTSASLAITGLQAEDEADYYCQSFDSGRSGSEVFGTGTKVTVL
B13: B1042 (protein)
chain 1: QVQLVQSGAEVRKPGASVKVSCKASGNTFTGYYIHWVRQAPGQGLEWMGWINPNSGGTNYAQRFRGRVALTTDTPINIVHMELSGLRSDDTAVYYCAKDTGSSWSEAEYFDSWGQGTLVTVSS
chain 2: DIQMTQSPSSLSASVGDRVTITCRASQSISNYLNWYQQKPGKAPNLLIYAASSLQSGVPSRFSGSGSGTDFTLTISSLQPDDFATYYCQQSYSTPPITFGQGTRLEI
B14: B609 (protein)
chain 1: QVQLVQSGAAVRKPGSSVKVSCKASGGLFSSFAISWVRQAPGQGLQYMGGIIPMFGIPNYAQKFQGRVTITADESTSTAYMELSSLTSEDTAVYYCARAPVATRPPDYWGQGTLVIVSS
chain 2: EIVMTQSPATLSVSPGERATLSCRASQSVSNNLAWYQQKPGQAPRLLIYGASTRATGIPARFSGSGSGTEFTLTISSLQSEDFAVYFCQQYNDWPPLTFGGGTKVEIK

The binders below were run against SARS-CoV-2 Wuhan-Hu-1 spike pseudovirus (assay: pseudovirus neutralization IC50; higher = weaker neutralization).
Experimental: (§1)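 Single-round luciferase reporter pseudovirus mixed with antibody dilutions and put on 293T-ACE2 cells for 48 h; signal relative to no-antibody wells, four-parameter fit.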
B1 was tested, and the “pseudovirus neutralization IC50” value was 3.54 ng/mL. In the case of B2, the “pseudovirus neutralization IC50” value is reported as 6.22 ng/mL. For B3, the “pseudovirus neutralization IC50” value was 34.1 ng/mL. For B4, the “pseudovirus neutralization IC50” value was 8.63 ng/mL. With B5 the “pseudovirus neutralization IC50” value was 8.1 ng/mL. B6 was tested, and the “pseudovirus neutralization IC50” value was 1.32 ng/mL. With B7 the “pseudovirus neutralization IC50” value was 5.14 ng/mL. For B8, the “pseudovirus neutralization IC50” value was 5.25 ng/mL. In the case of B9, the “pseudovirus neutralization IC50” value is reported as 1.91 ng/mL. For B10, the “pseudovirus neutralization IC50” value was 7.81 ng/mL. With B11 the “pseudovirus neutralization IC50” value was 52.5 ng/mL. With B12 the “pseudovirus neutralization IC50” value was 25.8 ng/mL. For B13, the “pseudovirus neutralization IC50” value was 18.6 ng/mL. With B14 the “pseudovirus neutralization IC50” value was 1.35 ng/mL.

The binders below were run against SARS-CoV-2 Wuhan-Hu-1 spike pseudovirus (assay: pseudovirus neutralization IC90; higher = weaker neutralization).
Experimental: as §1
With B1 the “pseudovirus neutralization IC90” value was 10.3 ng/mL. B2 was tested, and the “pseudovirus neutralization IC90” value was 79.2 ng/mL. B3 was tested, and the “pseudovirus neutralization IC90” value was 260 ng/mL. In the case of B4, the “pseudovirus neutralization IC90” value is reported as 37.2 ng/mL. With B5 the “pseudovirus neutralization IC90” value was 41.1 ng/mL. With B6 the “pseudovirus neutralization IC90” value was 6.5 ng/mL. With B7 the “pseudovirus neutralization IC90” value was 23.7 ng/mL. B8 was tested, and the “pseudovirus neutralization IC90” value was 21.5 ng/mL. With B9 the “pseudovirus neutralization IC90” value was 11.9 ng/mL. For B10, the “pseudovirus neutralization IC90” value was 74.2 ng/mL. In the case of B11, the “pseudovirus neutralization IC90” value is reported as over 1000 ng/mL. In the case of B12, the “pseudovirus neutralization IC90” value is reported as 88.7 ng/mL. In the case of B13, the “pseudovirus neutralization IC90” value is reported as 400 ng/mL. For B14, the “pseudovirus neutralization IC90” value was 4.22 ng/mL.

Each binder was assayed against SARS-CoV-2 Delta (B.1.617.2) spike RBD (assay: ELISA binding EC50; higher = weaker binding; ELISA of recombinant human antibody on coated antigen, from 10 µg/ml in fourfold dilutions; four-parameter fit.).
B1 was tested, and the “ELISA binding EC50” value was over 1000 ng/mL. In the case of B2, the “ELISA binding EC50” value is reported as 12.5 ng/mL. In the case of B3, the “ELISA binding EC50” value is reported as 8.16 ng/mL. With B4 the “ELISA binding EC50” value was 12.5 ng/mL. B5 was tested, and the “ELISA binding EC50” value was 5.45 ng/mL. For B6, the “ELISA binding EC50” value was 74.2 ng/mL. B7 was tested, and the “ELISA binding EC50” value was 3.83 ng/mL. With B8 the “ELISA binding EC50” value was 3.48 ng/mL. In the case of B9, the “ELISA binding EC50” value is reported as 2.56 ng/mL. In the case of B10, the “ELISA binding EC50” value is reported as 9.9 ng/mL. With B11 the “ELISA binding EC50” value was 388 ng/mL. B12 was tested, and the “ELISA binding EC50” value was 6.81 ng/mL. B13 was tested, and the “ELISA binding EC50” value was 435 ng/mL. B14 was tested, and the “ELISA binding EC50” value was 24 ng/mL.

The binders below were run against SARS-CoV-2 Omicron BA.1 spike protein in the same assay as above.
In the case of B1, the “ELISA binding EC50” value is reported as 16.1 ng/mL. B2 was tested, and the “ELISA binding EC50” value was over 1000 ng/mL. For B3, the “ELISA binding EC50” value was 6.67 ng/mL. With B4 the “ELISA binding EC50” value was over 1000 ng/mL. In the case of B5, the “ELISA binding EC50” value is reported as over 1000 ng/mL. For B6, the “ELISA binding EC50” value was over 1000 ng/mL. In the case of B7, the “ELISA binding EC50” value is reported as over 1000 ng/mL. In the case of B8, the “ELISA binding EC50” value is reported as over 1000 ng/mL. B9 was tested, and the “ELISA binding EC50” value was over 1000 ng/mL. B10 was tested, and the “ELISA binding EC50” value was over 1000 ng/mL. For B11, the “ELISA binding EC50” value was 149 ng/mL. In the case of B12, the “ELISA binding EC50” value is reported as 17.3 ng/mL. In the case of B13, the “ELISA binding EC50” value is reported as over 1000 ng/mL. For B14, the “ELISA binding EC50” value was over 1000 ng/mL.

The binders below were run against SARS-CoV-2 Wuhan-Hu-1 spike receptor-binding domain in the same assay as above.
In the case of B1, the “ELISA binding EC50” value is reported as 3.23 ng/mL. B2 was tested, and the “ELISA binding EC50” value was 3.33 ng/mL. For B3, the “ELISA binding EC50” value was 2.75 ng/mL. For B4, the “ELISA binding EC50” value was 2.58 ng/mL. B5 was tested, and the “ELISA binding EC50” value was 3.17 ng/mL. With B6 the “ELISA binding EC50” value was 1.88 ng/mL. In the case of B7, the “ELISA binding EC50” value is reported as 2.66 ng/mL. With B8 the “ELISA binding EC50” value was 2.3 ng/mL. B9 was tested, and the “ELISA binding EC50” value was 1.96 ng/mL. For B10, the “ELISA binding EC50” value was 3.19 ng/mL. With B11 the “ELISA binding EC50” value was 4.8 ng/mL. B12 was tested, and the “ELISA binding EC50” value was 2.21 ng/mL. With B13 the “ELISA binding EC50” value was 2.74 ng/mL. With B14 the “ELISA binding EC50” value was 3.03 ng/mL.
